Experimental data reported in PubChem BioAssay AID1347120 (National Center for Advancing Translational Sciences (NCATS), 2019).
Out of some 390,000 compounds screened, about 930 (0.24%) were called active. The inconclusive results got no clear call from the source; some entries with a clear call stand among them for comparison. Calls follow the shape of the dose curve; as a rule, active = well fitted activation curve with a large enough effect; inconclusive = small, poorly fitted or top-dose-only effect; inactive = no such curve, though single readings can be large or run the other way. Potencies of inconclusive entries are doubtful fits and often do not repeat.

Assay: qHTS for Suppressors of FUS Proteinopathy: Primary screen using FUS-linked yeast assay; also: nearly all actives have a fitted effect of over 55% in size;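 as to growth rescue (activation): plate controls were DMSO vehicle for no effect and reference control for full effect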
Conditions: S. cerevisiae FUS-expressing, OD600, 24 h; Potency: growth rescue; growth rescue (activation): at 76.6 µM (top of the series)
How it was run: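 Galactose (2%) drives FUS expression in yeast precultured in raffinose; seeding density OD 0.005. Test compounds incubated 24hr at 30C and 99% humidity before absorbance at 600 nm was measured.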
Potency is read from the fitted curve at half-maximal effect; tags tell the direction and shape of the fitted curve.

Structure (SMILES) | Potency | growth rescue (activation)
CCOC(=O)N1CCc2c(sc(NCc3ccc(OC)c(OC)c3OC)c2C(=O)Nc2ccc(OC)cc2OC)C1 | inconclusive: 14.1 µM [activator, partial curve, poor fit] | 
O=C(Nc1ccc(-c2nc3ncccc3o2)cc1)c1ccco1 | inconclusive: 35.5 µM [activator, partial curve, poor fit] | 
Cn1cc(S(=O)(=O)N2CCCCCC2)cc1C(=O)NCc1ccccc1Cl | inconclusive: 50.1 µM [activator, single point] | 
COc1ccc(NC(=O)C2CCCN(S(=O)(=O)c3ccc4c(c3)CCCN4C(C)=O)C2)cc1Cl (centres undefined) | inconclusive: 35.5 µM [activator, single point] | 
C#CCOCCOCCOCCNc1nc(N2CCN(C(=O)[C@H](Cc3cc4ccccc4[nH]3)n3cc([C@@H](N)CC(C)C)nn3)CC2)nc(N2CCN(C(=O)[C@H](Cc3cc4ccccc4[nH]3)n3cc([C@@H](N)CC(C)C)nn3)CC2)n1 | inconclusive: 14.1 µM [activator, partial curve, poor fit] | 
O=C(CCCC(=O)N(CC(=O)NC1CCCCC1)Cc1ccc2c(c1)OCO2)Nc1ccccn1 |  | inconclusive: 73.8% [activator]
CCOC(=O)c1cc(-c2ccccc2)n(CCC(=O)Nc2ccc(Cl)c(C(F)(F)F)c2)c1C |  | inactive: 38.6%
NC(=O)C1CCN(C(=O)CN2CCc3ccccc32)CC1 | inconclusive: 31.6 µM [activator, single point] | 
COc1ccc(NC(=O)Cc2c(C)n(C(=O)c3ccc(Cl)cc3)c3ccc(OC)cc23)cc1 | inconclusive: 3.98 µM [activator, full curve, poor fit] | 
COc1cc(OC)c(N(C)S(=O)(=O)c2cccc(C(=O)Nc3nccs3)c2)cc1Cl | inconclusive: 11.2 µM [activator, partial curve] | 
Cc1ccc(S(=O)(=O)N2CCOCC2)cc1C(=O)Nc1ccccc1C(=O)O |  | inactive: -5.2%
O=C(Cn1ccc(C(F)(F)F)n1)Nc1ccc(S(=O)(=O)NCc2ccco2)cc1 | inconclusive: 14.1 µM [activator, partial curve, poor fit] | 
O=C(c1ccco1)c1cn(CC(=O)N2CCCCC2)c2ccccc12 | inconclusive: 1.26 µM [activator, full curve] | 
O=C(Nc1ccccc1)c1cccc(S(=O)(=O)Nc2cccc(F)c2)c1 |  | inactive: -5.39%
CCC(CO)Oc1cc(NCc2ccc(C(C)(C)C)cc2)c2ncn(C(C)C)c2c1 (centres undefined) | inconclusive: 50.1 µM [activator, single point] | 
COc1ccc(N2CSC3=C(C#N)C(c4cc(OC)ccc4OC)CC(=O)N3C2)c(OC)c1 (centres undefined) | inconclusive: 44.7 µM [activator, single point] | 
CC(C)Sc1ncc(Cl)c(C(=O)Nc2nnc(C(C)C)s2)n1 | inconclusive: 25.1 µM [activator, single point] | 
O=C(NCc1cccs1)c1cnc2ccccn2c1=O |  | inactive: -10%
Cc1ccc(C)c(Cn2c(=O)n(CCCCCC(=O)NCc3ccc4c(c3)OCO4)c(=O)c3sccc32)c1 |  | inactive: -7.72%
Cc1cccc(C(=O)O[C@H]2[C@H](Cc3ccccc3)NS(=O)(=O)[C@H]3CC4C=C[C@]23O4)c1 | inconclusive: 50.1 µM [activator, single point] | 
Nc1ccc2oc(CCc3ccccc3)nc2c1 |  | inactive: 32.3%
CCC1CCCCN1CCCNC(=O)c1ccc2c(c1)N(Cc1ccc(Cl)cc1)C(=O)c1ccccc1S2(=O)=O (centres undefined) | inconclusive: 10 µM [activator, partial curve] | 

Structure (SMILES) | Potency | growth rescue (activation)
CCOC(=O)Cc1csc(NC(=O)COc2ccc(C)c(C)c2)n1 |  | inactive: 5.8%
C[C@@H]1CN([C@@H](C)CO)C(=O)c2cccc(NC(=O)Nc3ccccc3)c2O[C@H]1CN(C)C(=O)Nc1cccc2ccccc12 | inconclusive: 31.6 µM [activator, single point] | 
O=C(Cn1cc(C(=O)C2CC2)c2ccccc21)Nc1ccc(Br)cc1 |  | inactive: -10.7%
O=C(CSc1nc(C2CC2)nc2c1cnn2-c1ccccc1)Nc1c[nH]c(=O)[nH]c1=O | inconclusive: 25.1 µM [activator, partial curve] | 
COc1ccc(-c2cc(N)n(S(=O)(=O)c3c(F)c(F)c(F)c(F)c3F)n2)cc1OC | inconclusive: 50.1 µM [activator, single point] | 
COc1ccc(-n2c(SCC(=O)Nc3ccc(C)c(Cl)c3)nc3ccccc3c2=O)cc1 | inconclusive: 15.8 µM [activator, partial curve] | 
COc1ccc(NC(=O)c2oc3ccccc3c2NC(=O)Cc2cccs2)cc1 |  | inactive: -1.98%
COc1ccc(C)cc1NC(=O)N1CCN(c2cc(-c3noc(C)n3)ccc2C)CC1 | inconclusive: 50.1 µM [activator, single point] | 
COc1cc(NC(=O)c2ccccc2)c(C)cc1NC(=O)CSc1nnc(-c2ccco2)n1Cc1ccco1 | inconclusive: 25.1 µM [activator, single point] | 
CCOC(=O)[C@]12CCCC=C1N(Cc1ccc(OC)cc1)C(=O)[C@@H]2CC(=O)NCc1ccc(C)o1 |  | inactive: 25.5%
Nc1[nH]c2cc(Cl)ccc2c1C(=O)N1CCOCC1 |  | inactive: -7.61%
Cc1cccc(OCC(=O)Nc2ccc(Cl)c(-c3nc4ccccc4[nH]3)c2)c1 | inconclusive: 35.5 µM [activator, single point] | 
CCN(CC(=O)Nc1c(C(=O)OC)[nH]c2ccc(Cl)cc12)c1ccc2c(c1)OCO2 | inconclusive: 28.2 µM [activator, single point] | 
COc1ccc2ncc(S(=O)(=O)c3ccccc3)c(N3CCC4(CC3)OCCO4)c2c1 |  | inactive: 16.4%
CCOc1ccc(-c2cncc3nccn23)cc1 |  | inactive: -14.1%
Cc1ccc2nc(NCc3ccccc3)c(C=NCc3ccccc3)c(=O)n2c1 |  | inactive: 11.7%
CC[C@H](C)[C@@H](NC(=O)O[C@@H]1C(=O)c2cc(Br)ccc2O[C@H]1c1cccc(OC)c1)C(=O)OC | inconclusive: 22.4 µM [activator, single point] | 
CN1CCc2nc3sc(C(=O)Nc4cccc(C#N)c4)c(N)c3cc2C1 | inconclusive: 31.6 µM [activator, single point] | 
N#Cc1cccc(NC(=O)c2cc(C3CCCCN3C(=O)CCc3ccccc3)on2)c1 (centres undefined) | inconclusive: 25.1 µM [activator, partial curve, poor fit] | 
CCCOc1ccc(C2c3c(-c4ccccc4O)n[nH]c3C(=O)N2CCCOCC)cc1OCC (centres undefined) | inconclusive: 28.2 µM [activator, single point] | 
Cc1ccccc1Nc1nnc(SCc2cc([N+](=O)[O-])cc3c2OCOC3)s1 | inconclusive: 12.6 µM [activator, partial curve] | 
O=C(c1ccccc1)c1coc2ccc(O)c(Cl)c12 |  | inactive: 26.4%

Structure (SMILES) | Potency | growth rescue (activation)
Clc1ccc(-c2nc3ccc(Cl)cn3c2Cc2cccc(Cl)c2)cc1 | inconclusive: 50.1 µM [activator, single point] | 
CC1CCN(c2cc(N)c(Cl)cc2[N+](=O)[O-])CC1 |  | inactive: 12.9%
N#Cc1ccc(-c2ccc(OCC(=O)NCCCN3CCCC3=O)cc2)cc1 |  | inactive: -2.7%
CC(CNC(=O)Cn1c(-c2cccs2)cc2ccccc21)c1ccccc1 (centres undefined) |  | inactive: 3.84%
COC(=O)[C@]12C[C@H](CC(=O)N3CCOCC3)C(=O)N(Cc3ccc(Cl)cc3Cl)C1=C[C@H](C(C)(C)C)O[C@@H]2C | active: 15.8 µM | 
CCOC(=O)c1ccc(NC(=O)N2CCN(CCc3ccccc3)CC2)cc1 |  | inconclusive: 57.8% [activator]
Cc1ccc(S(=O)(=O)N(CC(=O)N2CCN(c3ccccc3F)CC2)C2CCCCC2)cc1 | inconclusive: 17.8 µM [activator, partial curve, poor fit] | 
CC(=O)n1cc([C@@H]2C=C(C(=O)NCc3ccccc3)O[C@H](OCCCCO)C2)c2ccccc21 | inconclusive: 39.8 µM [activator, single point] | 
CC1=C(C(=O)Nc2ccccc2C)C(c2ccc(C)o2)N2C(=O)CSC2=N1 (centres undefined) | inconclusive: 35.5 µM [activator, partial curve, poor fit] | 
C=Cc1ccc(CSc2nnc(C)n3c2cc2occc23)cc1 | inconclusive: 50.1 µM [activator, single point] | 
CC(C)OCCCn1c(SCC(=O)Nc2ccccc2C(F)(F)F)nc2nccnc2c1=O |  | inactive: 16.2%
Cn1c(=O)c2c(n3ncnc13)NC(=O)CC2c1cccc(F)c1 (centres undefined) |  | inactive: -16.4%
Cc1cc(C)n2cc(CSc3ccccn3)nc2n1 | inconclusive: 20 µM [activator, single point] | 
COc1ccc(CCNC(=O)CCCCn2c(=O)c3ccccc3n(Cc3ccc(Cl)cc3)c2=O)cc1OC | inconclusive: 44.7 µM [activator, single point] | 
COc1cccc(CNC(=O)c2oc3ccc4c(c3c2C)C(=O)CC(C)(C)O4)c1OC | inconclusive: 28.2 µM [activator, single point] | 
COc1ccc(C2CC(c3cccs3)=NN2c2nc(C)c(C(C)=O)s2)cc1OC (centres undefined) | inconclusive: 35.5 µM [activator, partial curve, poor fit] | 
Cc1cccc(CNC(=O)Cc2ccc(NC(=O)N3CCCCc4ccccc43)cc2)c1 | inconclusive: 39.8 µM [activator, single point] | 
CCOc1ccc(-c2cn3c(n2)sc2cc(C(=O)NCCCN(CC)CC)ccc23)cc1 |  | inactive: 36.3%
CCOC(=O)c1ccc(NC(=O)C(C)N(c2ccc(OCC)cc2)S(C)(=O)=O)cc1 (centres undefined) |  | inactive: 32.4%
COc1ccc(C(=O)Nc2ccc(C)c(S(=O)(=O)N3CCCCCC3)c2)cc1 |  | inactive: 22.6%
